Experimental data published in PubChem BioAssay AID686978 (National Center for Advancing Translational Sciences (NCATS), 2013).
Several values for one entry are separate records, joined by “and”; a condition that tells them apart may be missing. Identical values can stand only once. The whole screen tested about 420,000 compounds, of which about 64,000 (15%) were called active. Inconclusive results, whose numbers are uncertain, are shown with a selection of clear calls. The call rests on the fitted dose curve; in most records, active means well fitted inhibition curve with a large enough effect; inconclusive means small, poorly fitted or top-dose-only effect; inactive means flat fitted curve, though single readings scatter. Potencies of inconclusive entries are doubtful fits and often do not repeat.

Assay: qHTS for Inhibitors of human tyrosyl-DNA phosphodiesterase 1 (TDP1): qHTS in cells in absence of CPT; further: nearly all actives have a fitted effect of over 55% in size
Settings: DT40 Tdp1-/- hTDP1 cells, no CPT, ATP luminescence, 48 h; activity change, negative = growth inhibition: at 46.2 µM (top of the series) unless noted
How it was run: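 Luminescent ATP content (CellTiter-Glo) served as the growth readout. Knockout chicken DT40 cells expressing human TDP1 were exposed to compounds without camptothecin for a minimum 48 hr at 37 °C.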
On the % scale 0 is the no-effect control and ±100 the full control effect; potency means the concentration at half of the fitted maximal effect; tags describe the fitted curve by direction and shape.

SMILES | Potency | activity change, negative = growth inhibition
Cc1cccc(CSc2nc3c([nH]c4ccccc43)c(=O)n2C)c1 | inconclusive: 25.9 µM [inhibitor, single point] | 
COc1cc(OC)c(OC)cc1CNCc1ccco1 |  | inactive: -15.7%
Cc1noc(C)c1NC(=O)N(C)C[C@H]1OCCCC[C@@H](C)Oc2ccc(NC(=O)Nc3ccc(F)cc3)cc2C(=O)N([C@@H](C)CO)C[C@H]1C | active: 18.4 µM | 
Cc1cc(C)n(-c2ccc(C(=O)Nc3ccccn3)cc2)n1 | inconclusive: 10.3 µM [inhibitor, partial curve] | 
Cc1cccc(N2C(=O)Cc3ccccc3C2=O)c1 | inconclusive: 9.2 µM [inhibitor, partial curve] | 
CCCCC(CC)CNC(=O)Cc1ccc(-n2c(=O)[nH]c3ccccc3c2=O)cc1 (configuration not stated) | inconclusive: 23.1 µM [inhibitor, single point] | 
CCCCC12CN3CC(C)(CN(C1)C3c1c[nH]c3ccccc13)C2=O (configuration not stated) | inconclusive: 29.1 µM [inhibitor, single point] | 
O=c1[nH]n(Cc2ccccc2)c(=O)c2ccccc12 | active: 8.91 µM | 
CC1(NC(=O)CCNC(=O)c2ccc(C(C)(C)C)cc2)CCS(=O)(=O)C1 (configuration not stated) |  | inactive: -11%
Cc1ccccc1OCCC(=O)N1CCN(S(=O)(=O)c2ccc(Cl)cc2)CC1 |  | inactive: -1.02%
CCCCCCCN1C2=NCCN2c2ccccc21 | active: 18.4 µM | 
CCOc1ccc(CC(=O)Nc2c(C(=O)c3ccccc3)oc3ccc(Cl)cc23)cc1OCC | inconclusive: 4.11 µM [inhibitor, single point] | 
O=C1CC(N2CCC(O)(c3ccc(Cl)cc3)CC2)C(=O)N1Cc1ccc(N2CCCC2=O)cc1 (configuration not stated) | active: 14.6 µM | 
O=S(=O)(Cc1ccccc1)Nc1ccc(F)cc1 |  | inactive: 5.29%
CCc1cccc(NC(=O)Cn2c3[n+](c4ccc(C(F)(F)F)cc42)CCCCC3)c1 | active: 16.4 µM | 
O=C(Cn1ccc2cc(S(=O)(=O)N3CCCC3)ccc21)NCc1ccco1 |  | inactive: 0.17%
COc1ccc(NC(=O)/C(=C\c2ccc(F)cc2)NC(=O)c2ccco2)cc1 |  | inactive: -24.1%
COc1ccc(N2CCN(S(=O)(=O)c3ccc(-c4coc(C)n4)cc3)CC2)cc1 | inconclusive: 29.1 µM [inhibitor, single point] | 
O=C(N/N=C/c1ccc(OC(F)F)cc1OC(F)F)c1ccc(Br)cc1 |  | inactive: 20.6%
CC(=O)N1c2ccc(S(=O)(=O)Nc3ccc(C)c(Cl)c3)cc2CC1C (configuration not stated) | inconclusive: 7.31 µM [inhibitor, partial curve] | 
CCc1cc2c(cc3c(=O)n(CCCC(=O)NCc4cccc(Br)c4)ncn32)s1 | inconclusive: 23.1 µM [inhibitor, single point] | 
Cc1sc2ncnc(N3CCN(S(=O)(=O)c4ccc(C(C)(C)C)cc4)CC3)c2c1C | active: 3.26 µM | 
CCOC(=O)C1=C(C)NC(C)=C(C(=O)OCC)C1C(=O)OCC(=O)NC(C)C | inactive and inconclusive: 14.6 µM [inhibitor, single point] | 
COc1ccc(-c2cn3cccnc3n2)cc1NC(=O)c1cc(OC)c(OC)c(OC)c1 | inconclusive: 16.4 µM [inhibitor, partial curve, poor fit] | 

SMILES | Potency | activity change, negative = growth inhibition
CC1CCCN(c2nc3c(c(=O)[nH]c(=O)n3C)n2CCCc2ccccc2)C1 (configuration not stated) | inconclusive: 18.4 µM [inhibitor, single point] | 
O=C(c1cccc(F)c1)N1CCN(c2ccc([N+](=O)[O-])c(N3CCCCC3)c2)CC1 | inconclusive: 14.6 µM [inhibitor, partial curve, poor fit] | 
CC(=O)C(C(C)=O)C(c1ccccc1)c1nc2ccccc2[nH]c1=O (configuration not stated) |  | inactive: 11.2%
O=C(c1ccccc1SCc1ccccc1)N1CCOCC1 |  | inconclusive: -30.4% [inhibitor]
Cc1noc(C)c1COc1ccccc1C(=O)NCCOc1ccccc1 | inconclusive: 29.1 µM [inhibitor, single point] | 
COc1ccc(OC)c2[nH]c(=O)c(CCNC(=O)c3ccc(S(=O)(=O)N4CCCC4)cc3)cc12 | inconclusive: 29.1 µM [inhibitor, single point] | 
COc1ccc2cc(CCNC(=O)c3ccc4c(c3)OCO4)c(=O)[nH]c2c1 | inconclusive: 29.1 µM [inhibitor, single point] | 
CCOC(=O)c1c(-c2ccc(C)o2)csc1NC(=S)NC(=O)N(C)C | inconclusive: 35.5 µM [inhibitor, single point] | 
O=C(COC(=O)c1ccc(O)cc1O)NC1CC1 |  | inactive: 9.62%
Cc1ccccc1C(=O)N1CCC(C(=O)Nc2ccc3c(c2)OCO3)CC1 | inconclusive: 25.9 µM [inhibitor, single point] | 
Cc1ccc(S(=O)(=O)Nc2ccc(Cl)cc2C(=O)c2ccccc2)cc1 | inconclusive: 29.1 µM [inhibitor, partial curve] | 
CC(=O)N1CCc2cc(S(=O)(=O)CCC(=O)N3CCN(c4ccccn4)CC3)ccc21 | inconclusive: 16.4 µM [inhibitor, single point] | 
COCc1cc(C)n(CC(=O)Nc2ccccc2OC)c(=O)c1C#N | inconclusive: 29.1 µM [inhibitor, single point] | 
CCc1nc2c(OCc3ccccc3C)cccn2c1N(C)C(=O)C1CC1 | active: 23.1 µM | 
CN1CCN(C(=O)c2cc3ccccc3cc2O)CC1 |  | inactive: -11.9%
O=[N+]([O-])c1ccc(-c2nc(C(Cl)Cl)c3ccccc3n2)cc1 | active: 0.164 µM | 
CCCn1c(N2CCN(CC(=O)NCc3cccs3)CC2)nc2ccccc21 | inconclusive: 23.1 µM [inhibitor, partial curve] | 
O=C(/C=C/c1c(F)cccc1Cl)Nc1ccncc1 | inconclusive: 16.4 µM [inhibitor, partial curve] | 
CCC1Sc2ccccc2N(CC(=O)NCCC2=CCCCC2)C1=O (configuration not stated) | inconclusive: 25.9 µM [inhibitor, single point] | 
C=CCOC(=O)N1CCC2CC1c1cc(-c3cccc(C)c3)ccc12 (configuration not stated) | inconclusive: 29.1 µM [inhibitor, single point] | 
COc1ncc2nc(C)c(=O)n(C3CC3)c2n1 |  | inactive: 2.47%
CCC(C)Sc1ccc(-c2nc3cc(C)ccn3c2NC2CCCCC2)cc1 (configuration not stated) | active: 11.6 µM and active: 14.6 µM | 
CCOC(=O)N1CCN(S(=O)(=O)c2ccc(C(=O)Nc3nnc(C4CC4)o3)cc2)CC1 | inconclusive: 29.1 µM [inhibitor, single point] | 
Cc1nnc(NC(=O)CSc2nccn2Cc2ccccc2)s1 | inconclusive: 9.2 µM [inhibitor, partial curve, poor fit] | 

SMILES | Potency | activity change, negative = growth inhibition
CC(=O)C1C(c2ccc(F)cc2)c2c(noc2C)CC1(C)O (configuration not stated) |  | inactive: 2.65%
O=C1C2C(c3ccccc3)CC=CC2[C@H](c2cccc([N+](=O)[O-])c2)N1Cc1ccccc1 (some centres not stated) | inconclusive: 29.1 µM [inhibitor, single point] | 
CC1Cc2cc(S(=O)(=O)N3CCC(C(=O)NCc4ccco4)CC3)ccc2N1C(=O)C1CCC1 (configuration not stated) | active: 23.1 µM | 
COCCn1cnc2c(c1=O)c1nc3ccccc3nc1n2/N=C/c1ccco1 | inconclusive: 29.1 µM [inhibitor, partial curve, poor fit] | 
O=C1NC[C@@H](CCCCN2C[C@H](Cc3ccccc3)N(Cc3ccccc3)C(=O)C2=O)N(CCc2ccccc2)C1=O |  | inactive: -21.9%
CNC(=O)NC(=O)C(C)N1CCN(C/C=C/c2ccccc2)CC1 (configuration not stated) | inconclusive: 13 µM [inhibitor, partial curve, poor fit] | 
CCc1ccc(O)c(N=Cc2ccccc2O)c1 |  | inactive: -14.6%
O=C(NCCN1CCC(n2c(=O)[nH]c3ccccc32)CC1)N1c2ccccc2Sc2ccccc21 | active: 16.4 µM | 
COc1cccc(C2C(C(=O)Nc3nc4ccccc4s3)=C(C)NC3=C2C(=O)CC(C)(C)C3)c1OC (configuration not stated) | inconclusive: 29.1 µM [inhibitor, single point] | 
O=S(=O)(Nc1ccccc1N1CCOCC1)c1ccc(Cl)s1 |  | inactive: -17.2%
COc1ccc2nc(NC(=O)c3ccc(NC(=O)C4CCCO4)cc3)sc2c1 (configuration not stated) | inconclusive: 20.6 µM [inhibitor, partial curve] | 
CC(=O)CSc1nnc(-c2ccc(S(=O)(=O)N3CCC(C)CC3)cc2)o1 |  | inactive: -5.82%
CS(=O)c1ccccc1COC(=O)Nc1cccc(Cl)c1 (configuration not stated) | inconclusive: 13 µM [inhibitor, partial curve, poor fit] | 
Cc1ccc(-n2nnnc2SCc2ccc(C(=O)O)cc2)cc1C |  | inactive: 0.95%
NC(Cc1ccc(Cl)cc1)c1csc(Nc2ccc(C(F)(F)F)cn2)n1 (configuration not stated) | active: 9.2 µM | 
O=C(Nc1cc(-c2cccc(Cl)c2)nn1-c1ccccc1)c1ccccc1F | inconclusive: 23.1 µM [inhibitor, single point] | 
CCc1ccccc1S(=O)(=O)Cc1ccc(C(=O)NCCc2ccc(Cl)cc2)o1 | active: 18.4 µM | 
Cc1cccc(C(=O)NNC(=O)c2ccccc2)c1 |  | inactive: 1.08%
COc1cccc(-c2cc3nc(-c4ccccc4)cc(=O)n3[nH]2)c1 | active: 2.59 µM | 
O=S(=O)(c1ccc(NC(=S)Nc2ccc(OC(F)F)cc2)cc1)N1CCOCC1 | inconclusive: 29.1 µM [inhibitor, single point] | 
COC(=O)C1CCCCN1Cc1ccc2c(c1)CN(C(=O)c1ccc(F)cc1)CCO2 (configuration not stated) |  | inactive: -16.1%
O=C(Cc1ccc(Cl)cc1)NCCc1csc2nc(-c3ccccc3F)nn12 |  | inactive: -12.6%
COc1ccccc1OCCn1ccnc1 | inconclusive: 29.1 µM [inhibitor, single point] | 
COc1ccc(N(CC(=O)Nc2ccc(F)c(F)c2)S(=O)(=O)c2c(C)n[nH]c2C)cc1 |  | inactive: 6.09%
